Results are given in words; binding and its absence hold for the method and conditions named.
Columns and labels:
Experiment in all cases: SPR; SPR imaging (SPRi, Biacore Flexchip): partners spotted in triplicate on a bare gold chip at 0.06 to 1 mg/ml; purified LOX-PP injected at 2 µM and recirculated for 20 min; PBS with 0.05% Tween 20, 25 °C; both purified
[1] = biological target: T1, Syndecan-1 ectodomain (UniProt P18827)
T1 sequence: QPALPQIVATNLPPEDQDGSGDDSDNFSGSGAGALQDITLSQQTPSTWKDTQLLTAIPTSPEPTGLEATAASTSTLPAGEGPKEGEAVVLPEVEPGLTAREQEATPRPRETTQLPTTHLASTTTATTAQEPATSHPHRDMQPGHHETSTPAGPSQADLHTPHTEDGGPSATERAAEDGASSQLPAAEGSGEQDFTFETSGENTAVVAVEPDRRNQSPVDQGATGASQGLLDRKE

The chains behind the UniProt entries cited, without tags or fusion partners. Where a name states a change or a piece, a line headed by the entry shows the natural chain unless it says otherwise. A line that says so, or that is headed by a name, gives the form on record, which may keep a tag or linker. Residues count along the entry.
UniProt P34741, residues 19-144: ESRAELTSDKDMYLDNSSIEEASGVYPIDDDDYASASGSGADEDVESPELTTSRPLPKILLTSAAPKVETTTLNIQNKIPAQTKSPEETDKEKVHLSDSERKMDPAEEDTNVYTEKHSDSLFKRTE
UniProt P61769: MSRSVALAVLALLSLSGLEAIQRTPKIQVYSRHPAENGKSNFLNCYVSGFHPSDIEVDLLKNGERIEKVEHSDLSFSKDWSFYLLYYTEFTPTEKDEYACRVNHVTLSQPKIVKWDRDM
UniProt P00924: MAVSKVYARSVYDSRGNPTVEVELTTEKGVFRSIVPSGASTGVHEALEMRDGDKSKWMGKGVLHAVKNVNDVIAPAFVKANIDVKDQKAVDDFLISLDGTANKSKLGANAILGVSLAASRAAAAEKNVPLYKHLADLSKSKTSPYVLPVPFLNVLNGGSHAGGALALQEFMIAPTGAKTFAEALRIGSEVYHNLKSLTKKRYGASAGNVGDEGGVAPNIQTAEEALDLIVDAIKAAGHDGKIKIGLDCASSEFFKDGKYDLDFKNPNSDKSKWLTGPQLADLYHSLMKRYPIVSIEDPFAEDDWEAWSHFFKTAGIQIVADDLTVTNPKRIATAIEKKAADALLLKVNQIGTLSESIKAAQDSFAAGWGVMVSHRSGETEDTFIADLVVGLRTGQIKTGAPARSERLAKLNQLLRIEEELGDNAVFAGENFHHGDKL
Lysyl oxidase propeptide (LOX-PP) (Pro24Leu) (P28300, form named): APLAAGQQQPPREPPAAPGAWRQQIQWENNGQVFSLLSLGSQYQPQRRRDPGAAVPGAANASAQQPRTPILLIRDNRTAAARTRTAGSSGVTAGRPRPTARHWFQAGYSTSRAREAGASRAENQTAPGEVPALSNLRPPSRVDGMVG

[2] = biological target: T2, Syndecan-4 ectodomain (UniProt P31431)
T2 sequence: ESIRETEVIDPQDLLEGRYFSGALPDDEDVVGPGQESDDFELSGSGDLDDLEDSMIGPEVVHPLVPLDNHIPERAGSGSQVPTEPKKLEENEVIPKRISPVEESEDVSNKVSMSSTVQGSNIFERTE

[3] = biological target: T3, Periostin (UniProt Q15063)
T3 sequence: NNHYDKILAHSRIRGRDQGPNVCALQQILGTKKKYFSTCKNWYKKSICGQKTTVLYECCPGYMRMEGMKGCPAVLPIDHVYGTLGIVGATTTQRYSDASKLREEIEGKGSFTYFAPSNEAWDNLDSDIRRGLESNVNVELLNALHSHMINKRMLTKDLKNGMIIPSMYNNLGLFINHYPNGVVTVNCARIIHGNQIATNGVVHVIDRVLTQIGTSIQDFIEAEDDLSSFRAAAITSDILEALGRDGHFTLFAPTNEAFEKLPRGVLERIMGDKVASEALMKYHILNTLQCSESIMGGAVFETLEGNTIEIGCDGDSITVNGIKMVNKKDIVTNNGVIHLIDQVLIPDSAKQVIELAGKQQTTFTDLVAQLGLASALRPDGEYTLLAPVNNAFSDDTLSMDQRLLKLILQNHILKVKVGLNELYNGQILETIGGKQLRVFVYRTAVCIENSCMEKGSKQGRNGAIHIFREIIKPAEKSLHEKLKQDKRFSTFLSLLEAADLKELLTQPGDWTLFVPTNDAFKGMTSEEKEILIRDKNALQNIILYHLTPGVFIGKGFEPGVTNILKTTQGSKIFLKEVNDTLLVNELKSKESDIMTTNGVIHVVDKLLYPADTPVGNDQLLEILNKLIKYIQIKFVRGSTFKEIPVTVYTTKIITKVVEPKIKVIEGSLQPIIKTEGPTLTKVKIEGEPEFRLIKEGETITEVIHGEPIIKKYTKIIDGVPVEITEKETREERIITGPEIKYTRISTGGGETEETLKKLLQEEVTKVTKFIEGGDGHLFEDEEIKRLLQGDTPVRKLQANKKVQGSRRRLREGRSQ

[4] = biological target: Syndecan-2 ectodomain (UniProt P34741)
[5] = biological target: β-2 microglobulin (UniProt P61769)
[6] = biological target: T4, Catalase (UniProt P00432)
T4 sequence: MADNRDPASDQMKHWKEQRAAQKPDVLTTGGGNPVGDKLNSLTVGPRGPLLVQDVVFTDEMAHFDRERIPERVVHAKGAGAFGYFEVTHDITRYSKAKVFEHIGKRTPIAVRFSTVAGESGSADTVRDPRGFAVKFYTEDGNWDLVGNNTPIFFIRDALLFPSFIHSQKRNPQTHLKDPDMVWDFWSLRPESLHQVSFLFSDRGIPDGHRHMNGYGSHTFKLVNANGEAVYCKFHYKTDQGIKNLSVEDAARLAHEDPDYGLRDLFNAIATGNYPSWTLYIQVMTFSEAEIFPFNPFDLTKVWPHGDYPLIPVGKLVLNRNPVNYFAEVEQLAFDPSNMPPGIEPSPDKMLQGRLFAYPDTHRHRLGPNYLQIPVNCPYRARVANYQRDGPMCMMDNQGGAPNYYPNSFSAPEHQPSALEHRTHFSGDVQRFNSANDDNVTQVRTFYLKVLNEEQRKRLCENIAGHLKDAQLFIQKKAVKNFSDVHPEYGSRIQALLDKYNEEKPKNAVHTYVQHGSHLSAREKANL

[7] = biological target: Enolase (UniProt P00924)

Measured: binding

Lysyl oxidase propeptide (LOX-PP) (Pro24Leu) (from UniProt P28300 22-168) (domain or fragment)
no binding (tested: 2 µM): all assays above
